# Measurements taken from the supplement of paper PMC7826260.
# The list shows a part of the results. Viral Rep nickase domains cut single-stranded DNA in vitro (3 µM enzyme, 1 h, 37 °C); shown is the middle of each 90-letter strand. Numbers give uncut DNA relative to the enzyme-free pool, as log2; more negative means more cut, near 0 not cut, and no call is made. Counts are relative to all reads, so uncut sequences can rise above 0 when many others are cut.
# Tested on: T1, Rep nickase domain of tomato golden mosaic virus
# T1 sequence (protein, residues 1-124, tag omitted): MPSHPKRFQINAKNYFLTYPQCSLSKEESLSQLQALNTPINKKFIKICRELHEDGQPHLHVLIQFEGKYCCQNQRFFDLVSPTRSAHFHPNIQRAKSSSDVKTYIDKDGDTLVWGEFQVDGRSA
# Experiment: uncleaved DNA left, log2 of reads against the no-enzyme library (log2 ratio); higher = less cleavage (more negative = more Rep cleavage of the k-mer); sequences stand for … in CTCGTCCG…ACCGGAGA
# Description: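 A pool of 90-nt single-stranded DNAs with seven random bases just before the constant AC of the nick site (name = the seven bases) was cut by 3 µM recombinant His6-SUMO-tagged Rep nickase domain (300 nM DNA, 50 mM HEPES pH 8.0, 50 mM NaCl, 1 mM MnCl2, 1 h, 37 °C, three replicates). Uncut DNA was amplified and sequenced.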
row,Sequence,uncleaved DNA left (log2)
1,TGCTAAA,-0.0948
2,ACGGGTA,0.102
3,AGGCCGG,0.159
4,ATCTTTG,0.0813
5,TACATGA,-0.0508
6,CTCACAG,0.0684
7,CCCACAA,-0.0809
8,TTTGTGG,-0.138
9,GTACTGG,0.197
10,CTAAGCG,-0.113
11,GACAGTA,0.0268
12,TCAGCCA,-0.0177
13,ATCTCAG,-0.0542
14,GTTGATC,-0.0848
15,AAACCGC,-0.0941
16,ACCGGAT,0.192
17,TCACCTT,-0.0732
18,GGCGTGC,-0.00608
19,ATAATGT,0.151
20,GGACCCA,-0.0146

row,Sequence,uncleaved DNA left (log2)
1,TTATTCA,-0.0383
2,AAACGAA,0.066
3,ATATATT,-3.08
4,AGTTAGC,-0.0654
5,AGGGCTC,-0.0274
6,GTACCAA,0.146
7,AATCCTT,-0.233
8,GAAACAG,0.0311
9,GCGGATA,0.125
10,ACGGTTT,0.0375
11,GTAACAA,0.117
12,GTAGGCT,0.137
13,TGCGGAT,0.0499
14,GCGTAGC,0.0111
15,TGATGCT,-0.0131
16,GATCACA,-0.172
17,TCACGGT,0.0495
18,CGGGACC,0.101
19,GAAGCGC,0.0641
20,TGCGCGC,-0.104
